This note sets out measurements from PubChem BioAssay AID1745853 (National Center for Advancing Translational Sciences (NCATS), 2022).

This is one part of the list. Shown are side measurements of this screen, not its main read-out; they come without a call.

Common to all, as to test: Primary Screen for Target Class Profiling of Small Molecule Inhibitors of Methyltransferases
Experiment [1] deals with Glycine N-methyltransferase (Homo sapiens) (UniProt Q14749). The following applies: purified enzyme, MTase-Glo SAH luminescence; measured here: GNMT inhibition; at 40 µM; stronger effect = lower value. In short, it runs like this:
(§1)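 Each enzyme was reacted with SAM and its substrate, with compounds tested once at 40 uM; SAH formed was read by MTase-Glo luminescence.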

Experiment [2] deals with Guanidinoacetate N-methyltransferase (Homo sapiens) (UniProt Q14353). The following applies: purified enzyme, MTase-Glo SAH luminescence; measured here: GAMT inhibition; at 40 µM; stronger effect = lower value. In short, it runs like this:
as §1

Experiment [3] has as its target Histamine N-methyltransferase (Homo sapiens) (UniProt P50135). The following applies: purified enzyme, MTase-Glo SAH luminescence; measured here: HNMT inhibition; at 40 µM; stronger effect = lower value. In short, it runs like this: as §1
The target in experiment [4] is Nicotinamide N-methyltransferase (Homo sapiens) (UniProt P40261). The following applies: purified enzyme, MTase-Glo SAH luminescence; measured here: NNMT inhibition; at 40 µM; stronger effect = lower value. The method, boiled down:
as §1

Experiment [5] deals with Phenylethanolamine N-methyltransferase (Homo sapiens) (UniProt P11086). Conditions: purified enzyme, MTase-Glo SAH luminescence; measured here: PNMT inhibition; at 40 µM; stronger effect = lower value. In short, it runs like this: as §1
% is set by controls: 0 for no effect and ±100 for the full control effect.

Regarding `CC1CCN(S(=O)(=O)c2ccc3c(ccn3CCC(=O)NCC3CCCO3)c2)CC1` (stereo not given), the activity change, negative = inhibition in experiment [1] is -0.975%; in experiment [2], -1.65%; in experiment [3], -4.91%; in experiment [4], -0.96%; in experiment [5] it was -3.17%.
On to `CN(C)C[C@@H]1CN(Cc2ccccn2)C[C@H]1NC(=O)c1ccc(Cl)s1`, for which the activity change, negative = inhibition was -5.52% in experiment [1]; -6.08% in experiment [2]; -4.09% in experiment [3]; -20.2% in experiment [4]; -18% in experiment [5].
As to `O=C1CN(Cc2cccc(Cl)c2)S(=O)(=O)c2ccccc2N1Cc1ccc(Cl)cc1`, the activity change, negative = inhibition in experiment [1] turned out to be 16.6%; in experiment [2], 3.69%; in experiment [3], 12.7%; in experiment [4] it was 9.93%; in experiment [5] it was 8.73%.
For the compound `COc1cccc([S+](=O)([O-])N2CCC23Cc2ccccc2NC3=O)c1` (stereo not given), the activity change, negative = inhibition is -1.8% in experiment [1]; -5.34% in experiment [2]; 1.27% in experiment [3]; -13.6% in experiment [4]; -2.14% in experiment [5].
As for `Cc1ccc(Cn2c(=O)c3ccc(C(=O)NC(C)C)cc3n3c(=O)[nH]nc23)cc1`, the activity change, negative = inhibition in experiment [1] was -4.18%; in experiment [2], 0%; in experiment [3], -3.89%; in experiment [4], -16.5%; in experiment [5], -11.5%.
The matching figures for `CCN1C(=O)c2c(C(=O)NCCc3ccccc3)ncn2CC1(C)C(=O)NC1CCCC1` (stereo not given): -4.64%, -10.3%, -0.087%, -7.73% and -1.68%.
In the same order, the values of `COc1c2c(c(C)c3c1C(=O)OC3)OC1(C)CC(O)C34OC(OC)(CC(O)C3(C)C1C2)OC4(C)C` (stereo not given) are -4.62%, 5.96%, -5.83%, -13.6% and 4.22%.
In the same order, the values of `Cn1c(=O)n(C)c2cc(S(=O)(=O)N3CCN(Cc4ccc5c(c4)OCO5)CC3)ccc21` are 0.271%, 1.04%, 0.778%, -3.83% and -1.85%.
Take `COC1(CC(C)C)NC(=O)C(O)(Cc2ccccc2)NC1=O` (stereo not given): the activity change, negative = inhibition was 8.32% in experiment [1]; 7.17% in experiment [2]; 9.2% in experiment [3]; -4.54% in experiment [4]; 4.76% in experiment [5].
Consider `COC(=O)c1ccc2nc(C[C@@H]3C[C@@H](C(C)C)[C@H](CNC(=O)c4cccnc4)C=C3C)[nH]c2c1`, for which the activity change, negative = inhibition in experiment [1] was -4.38%; in experiment [2], 3.06%; in experiment [3], -18.4%; in experiment [4], -23.8%; in experiment [5] it was 2.65%.
In the same order, the values of `COc1ccc(CCNC(=O)CCc2nnc3n(CC(C)C)c(=O)c4ccccc4n23)cc1OC` are -0.913%, 3.99%, 3.87%, -34% and -1.36%.
For `CO[C@@]1(NC(=O)CSCC#N)C(=O)N2C(C(=O)O)=C(CSc3nnnn3C)CS[C@@H]21`, the activity change, negative = inhibition in experiment [1] was -3.72%; in experiment [2], 12.6%; in experiment [3], 8.27%; in experiment [4], 0.61%; in experiment [5], 5.54%.
